Test results as given in PubChem BioAssay AID686979 (National Center for Advancing Translational Sciences (NCATS), 2013).
Screen size: about 420,000 compounds; about 50,000 (12%) were called active. Inconclusive means that the source gave no clear call. Such entries were picked first, then a sample of the others. Calls follow the shape of the dose curve; as a rule, active = well fitted inhibition curve with a large enough effect; inconclusive = small, poorly fitted or top-dose-only effect; inactive = flat fitted curve, though single readings scatter. Potencies of inconclusive entries are left out as doubtful fits.
% is scaled to controls: 0 for no effect and ±100 for the full control effect; potency is read from the fitted curve at half-maximal effect; tags tell the direction and shape of the fitted curve.

Assay: qHTS for Inhibitors of human tyrosyl-DNA phosphodiesterase 1 (TDP1): qHTS in cells in presence of CPT; also: nearly all actives have a fitted effect of over 55% in size
Conditions: chicken DT40 Tdp1-/-;hTDP1 cells + 20 nM CPT, ATP luminescence, 48 h; activity change, negative = growth inhibition: at 46.2 µM (top of the series) unless noted
How it was run: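 Cell growth measured by CellTiter-Glo luminescence after a minimum 48 h, 37 C compound exposure with 20 nM CPT in Tdp1-knockout DT40 cells stably expressing hTDP1, seeded 400/well; qHTS titration format.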
With `O=C(c1sc2cccc(F)c2c1Cl)N1CCN(c2ncccn2)CC1` the “activity change, negative = growth inhibition” value was inactive: -8.25%.
For `Cc1cc(C)cc(NC(=O)Cn2cc(C(=O)c3ccncc3)c(=O)c3cc(C)c(C)cc32)c1`, the Potency was inconclusive [inhibitor, partial curve, poor fit].
In the case of `CC1(C)CC(O)CC(C)(C)N1CC(O)COCc1ccccc1` (stereo not drawn), the “activity change, negative = growth inhibition” value is reported as inactive: 0.545%.
In the case of `Cc1c(Cl)cccc1NC(=S)NCCN1CCOCC1`, the Potency is reported as inconclusive [inhibitor, full curve].
With `Cc1cccc(NC(=O)C2CCN(S(=O)(=O)c3ccc4[nH]c5c(c4c3)CCCCC5)CC2)c1` the Potency was active: 20.6 µM.
In the case of `O=C(Nc1ccn(CCCN2CCN(Cc3ccc(F)cc3)CC2)c(=O)n1)OCc1ccccc1`, the Potency is reported as active: 20.6 µM.
With `O=S1(=O)CCC(N=Nc2c(O)n(Cc3ccccc3)c3ccccc23)C1` (stereo not drawn) the Potency was active: 20.6 µM.
With `Cc1cn2c(N)c(C=C3C=C(Cl)C(=O)C(Cl)=C3)c(=O)nc2s1` the Potency was inconclusive [inhibitor, single point].
With `CC(=O)N=C1SC2CS(=O)(=O)CC2N1c1c(Cl)cccc1Cl` (stereo not drawn) the “activity change, negative = growth inhibition” value was inactive: 6.69%.
In the case of `COc1ccc(NC(=O)N2CC[C@@]3(CCCN(C(=O)c4cccc(F)c4)C3)C2)cc1`, the Potency is reported as inconclusive [inhibitor, single point].
With `COc1c(Cl)cc(C(=O)O)cc1Cl` the “activity change, negative = growth inhibition” value was inactive: -1.23%.
In the case of `CCC(C)/C=C/C1=CC2=C(Cl)C(=O)C3(C)OC(=O)C(C(=O)C(C)C(C)O)C3C2=CO1` (stereo not drawn), the Potency is reported as active: 11.6 µM.
With `O=C(Nc1ccc(-n2cccn2)cc1)C1CCCCN1Cc1cccc2cccnc12` (stereo not drawn) the Potency was inconclusive [inhibitor, single point].
In the case of `O=C(CCc1nc2ccccc2c(=O)[nH]1)NCC(=O)Nc1ccc(F)c(F)c1`, the Potency is reported as inconclusive [inhibitor, partial curve].
In the case of `COc1ccc(CNC(=O)C2CCN(S(=O)(=O)c3ccc4nc5c(c(C(=O)O)c4c3)CCCC5)CC2)cc1`, the Potency is reported as “inactive”.
For `COc1cc2c(c(OC)c1OC)-c1ccc(SC)c(=O)cc1C(NC(=O)c1ccccc1)CC2` (stereo not drawn), the Potency was active: 0.0146 µM.
With `Cc1ccc(-c2nnc(N3CCN(C(=O)COc4cccc(C)c4)CC3)c3ccccc23)cc1` the Potency was inconclusive [inhibitor, single point].
In the case of `Cc1cc(OCC(=O)N2CCC(O)(c3ccc(Cl)cc3)CC2)c2c(C)cc(=O)oc2c1`, the “activity change, negative = growth inhibition” value is reported as inactive: -40.1%.
For `CCc1nc2c(OCC(=O)C(C)(C)C)cccn2c1N(C)C(=O)CC(C)C`, the Potency was inconclusive [inhibitor, single point].
In the case of `CC(OC(=O)Cn1cnc2c1c(=O)n(C)c(=O)n2C)C(=O)NC(C)c1ccc(Cl)cc1Cl` (stereo not drawn), the activity change, negative = growth inhibition is reported as inconclusive: -33.9% [inhibitor].
With `CCCc1c(C)c(C#N)c2nc3ccccc3n2c1NCCCN1CCOCC1` the Potency was inconclusive [inhibitor, single point].
For `CCOC(=O)C1(Cc2ccccc2C)CCCN(C(=O)c2ccnn2C)C1` (stereo not drawn), the “activity change, negative = growth inhibition” value was inactive: -3.04%.
For `O=C(NCC(c1cccnc1)N1CCN(c2ccccc2F)CC1)OCc1ccccc1` (stereo not drawn), the Potency was inconclusive [inhibitor, single point].
In the case of `CC(C(=O)Nc1sc2c(c1C#N)CCCCC2)N1C(=O)c2ccccc2C1=O` (stereo not drawn), the “activity change, negative = growth inhibition” value is reported as inactive: 17.4%.
For `COCCNC(=O)c1cc(S(=O)(=O)N(C)C2CCCCC2)ccc1Cl`, the “activity change, negative = growth inhibition” value was inactive: -27.6%.
For `Cc1c(C(=O)N2CCN(c3ccc([N+](=O)[O-])cc3)CC2)oc2ccccc12`, the Potency was inconclusive [inhibitor, single point].
In the case of `Fc1ccccc1NC(=S)N1CCN(C/C=C/c2ccccc2)CC1`, the “activity change, negative = growth inhibition” value is reported as inactive: -24%.
In the case of `Cc1ccc(S(=O)(=O)c2nc(/C=C/c3ccccc3)oc2N2CCC(C(N)=O)CC2)cc1`, the Potency is reported as inconclusive [inhibitor, single point].
For `CCCCCn1c(=O)[nH]c2cc(C(=O)N3CCN(c4cccc(Cl)c4)CC3)ccc2c1=O`, the Potency was active: 10.3 µM.
For `COc1cccc(-c2nnc(SCC(=O)OC(C)C)n2Cc2ccco2)c1`, the Potency was inconclusive [inhibitor, single point].
In the case of `Clc1ccccc1CSc1nnc(-c2cccnc2)n1Cc1ccco1`, the Potency is reported as inconclusive [inhibitor, single point].
For `COc1ccc(CCN(Cc2cccs2)S(=O)(=O)c2ccc(S(=O)(=O)N(C)C3CCCCC3)cc2)cc1OC`, the Potency was inconclusive [inhibitor, single point].
In the case of `NS(=O)(=O)c1ccc(NC(=O)COC(=O)CNC(=O)C23CC4CC(CC(C4)C2)C3)cc1`, the Potency is reported as inconclusive [inhibitor, single point].
With `O=C(COc1ccc(Cl)cc1)Nc1ccccc1CO` the Potency was inconclusive [inhibitor, single point].
For `Cc1ccccc1NC(=O)c1cc2sccc2n1Cc1ccc(F)cc1`, the Potency was inconclusive [inhibitor, single point].
For `COc1cc(OC)cc(C(=O)N2CCN(C(=O)c3ccc(-c4ccccc4)cc3)CC2)c1`, the “activity change, negative = growth inhibition” value was inactive: -22.5%.
For `CCOC(=O)C1=C(C)NC(C)=C(C(=O)OCC)C1c1cccs1`, the Potency was inconclusive [inhibitor, single point].
With `COc1ccccc1C(=O)NCCC(=O)Nc1ncccc1C` the “activity change, negative = growth inhibition” value was inactive: 0.952%.
With `N#Cc1cccc(C#N)c1Oc1ccc(N)cc1` the “activity change, negative = growth inhibition” value was inactive: -3.3%.
With `COc1ccc(NC(=O)C2CCCN(S(=O)(=O)c3cccs3)C2)cc1OC` (stereo not drawn) the activity change, negative = growth inhibition was inconclusive: -33.4% [inhibitor].
In the case of `COc1ccc(OC)c(CNC(=O)c2cc(S(=O)(=O)N3CCC(C)CC3)cn2C)c1`, the Potency is reported as inconclusive [inhibitor, single point].
For `COc1ccc2c(=O)c(C)c(-c3ccccc3)oc2c1CN(C)C`, the Potency was inconclusive [inhibitor, single point].
In the case of `CC1(c2ccc(OC(F)F)cc2)NC(=O)N(CC(=O)Nc2ccc(Cl)cc2F)C1=O` (stereo not drawn), the Potency is reported as inconclusive [inhibitor, single point].
For `CC(C)/C(=N\NS(=O)(=O)c1ccc(Br)cc1)c1cccs1`, the Potency was inconclusive [inhibitor, single point].
With `CC(C)(C)C(=O)NNC(=O)c1cc2sccc2s1` the “activity change, negative = growth inhibition” value was inactive: 5.73%.
For `O=C(Cc1ccc(S(=O)(=O)N2CCOCC2)s1)NCCC(c1ccccc1)c1ccccc1`, the Potency was inconclusive [inhibitor, single point].
With `Oc1ccccc1/C=N/NC(=S)NC1CC2C=CC1C2` (stereo not drawn) the Potency was active: 1.84 µM.
For `CN(C(=O)CSc1nnc(C(F)(F)F)n1C)c1c(N)n(Cc2ccccc2)c(=O)[nH]c1=O`, the “activity change, negative = growth inhibition” value was inactive: -3.78%.
With `COc1cc(CNC(=O)c2cc(-c3cc(C)cc(F)c3)n[nH]2)cc(OC)c1` the Potency was inconclusive [inhibitor, single point].
For `CCc1ccccc1NC(=O)C1=CC(c2cccs2)=NS(=O)(=O)N1C`, the Potency was inconclusive [inhibitor, single point].
With `COc1ccc(-c2cn(-c3ccc(Br)cc3)c3[n+]2CCS3)cc1` the Potency was active: 8.2 µM.
In the case of `CCn1c(=O)c2c(nc3n2CCCN3CCc2ccccc2)n(C)c1=O`, the Potency is reported as inconclusive [inhibitor, partial curve].
For `CC1CCC(NC(=O)CCNS(=O)(=O)c2ccccc2)CC1` (stereo not drawn), the “activity change, negative = growth inhibition” value was inactive: -7.3%.
In the case of `COc1cc(C(=O)NCC(c2cccs2)N2CCOCC2)ccc1OCc1ccccc1` (stereo not drawn), the Potency is reported as inconclusive [inhibitor, single point].
For `COc1ccc(CCn2c(=S)[nH]c3cc(C(=O)NCc4ccco4)ccc3c2=O)cc1OC`, the Potency was active: 20.6 µM.
With `CCOCCCNC1=C(Cl)C(=O)c2ccccc2C1=O` the Potency was active: 5.8 µM.
In the case of `C=CCNc1nc(NCCNC(C)=O)c2sc(-c3ccccc3)cc2n1`, the Potency is reported as inconclusive [inhibitor, single point].
For `CC1(C)CCC(=NNC(N)=S)CC1`, the Potency was inconclusive [inhibitor, single point].
In the case of `COc1cc2oc(=O)c(CC(=O)NCCc3ccccc3)c(C)c2cc1Cl`, the “activity change, negative = growth inhibition” value is reported as inactive: -1.81%.
For `NC(=O)c1ccsc1NC(=O)CCS(=O)(=O)c1ccccc1`, the Potency was inconclusive [inhibitor, full curve, poor fit].
In the case of `CN1C(=O)C(O)(CC(=O)c2ccccc2O)c2cc(Br)ccc21` (stereo not drawn), the Potency is reported as active: 5.17 µM.
For `CNC(=O)CCc1[nH]c2ccccc2c1Sc1ccccc1`, the “activity change, negative = growth inhibition” value was inactive: -25.4%.
With `c1ccc2ncccc2c1` the Potency was “inactive”.
For `Cn1c(=O)c2cc(S(=O)(=O)NCCC(=O)Nc3ccc(Cl)cc3)ccc2n(C)c1=O`, the Potency was inconclusive [inhibitor, partial curve].
In the case of `CCCCCC1=C(C(=O)OC)C(C(=O)OCC)N(S(=O)(=O)C(F)(F)F)c2ccccc21` (stereo not drawn), the Potency is reported as inconclusive [inhibitor, single point].
With `COc1ccc(-n2nnc3c(=O)n(C/C=C/c4ccccc4)cnc32)cc1` the Potency was inconclusive [inhibitor, single point].
With `COC(=O)C1(C)NCCc2c1[nH]c1ccccc21` (stereo not drawn) the “activity change, negative = growth inhibition” value was inactive: 3.04%.
With `O=c1[nH]c(Cc2cccc(C(F)(F)F)c2)nc2ccccc12` the “activity change, negative = growth inhibition” value was inactive: -18.7%.
For `O=C(CSc1n[nH]c(-c2cccs2)n1)NCCc1ccccc1`, the Potency was inconclusive [inhibitor, partial curve].
With `O=C(O)CCCNC(=O)OCc1ccccc1` the “activity change, negative = growth inhibition” value was inactive: 3.21%.
In the case of `CCc1ccc(/C=C/c2c([N+](=O)[O-])c(=O)n(C)c(=O)n2C)cc1`, the Potency is reported as inconclusive [inhibitor, single point].
With `Cc1ccc(-n2c(=O)c3c4c(sc3n3c(C)nnc23)COC(C(C)C)C4)cc1` (stereo not drawn) the Potency was inconclusive [inhibitor, partial curve, poor fit].
For `CSc1nn(Cc2ccccc2C)c(NC(C)=O)c1S(=O)(=O)c1ccc(C)cc1`, the Potency was inconclusive [inhibitor, single point].
